# Laboratory results from PubChem BioAssay AID1745853 (National Center for Advancing Translational Sciences (NCATS), 2022).
# Where “and” joins values, the source holds several entries; their conditions need not be identical. Equal values may be shown once. This is one part of the list. The main result of the screen is listed elsewhere. These columns were measured beside it and carry no call.
# How the values were obtained:
# Experiment in all cases: Primary Screen for Target Class Profiling of Small Molecule Inhibitors of Methyltransferases
# [1] = target: Glycine N-methyltransferase (Homo sapiens) (UniProt Q14749); conditions: purified enzyme, MTase-Glo SAH luminescence; measured here: GNMT inhibition; at 40 µM; stronger effect = lower value
# Method in brief: (§1)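 Each enzyme was assayed with SAM and its substrate. SAH formation detected by MTase-Glo luminescence; single-point 40 uM screen[…].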
# [2] = target: Guanidinoacetate N-methyltransferase (Homo sapiens) (UniProt Q14353); conditions: purified enzyme, MTase-Glo SAH luminescence; measured here: GAMT inhibition; at 40 µM; stronger effect = lower value
# Method in brief: as §1
# [3] = target: Histamine N-methyltransferase (Homo sapiens) (UniProt P50135); conditions: purified enzyme, MTase-Glo SAH luminescence; measured here: HNMT inhibition; at 40 µM; stronger effect = lower value
# Method in brief: as §1
# [4] = target: Nicotinamide N-methyltransferase (Homo sapiens) (UniProt P40261); conditions: purified enzyme, MTase-Glo SAH luminescence; measured here: NNMT inhibition; at 40 µM; stronger effect = lower value
# Method in brief: as §1
# [5] = target: Phenylethanolamine N-methyltransferase (Homo sapiens) (UniProt P11086); conditions: purified enzyme, MTase-Glo SAH luminescence; measured here: PNMT inhibition; at 40 µM; stronger effect = lower value
# Method in brief: as §1
# On the % scale 0 is the no-effect control and ±100 the full control effect.
Compound,"activity change, negative = inhibition [1] [%]","activity change, negative = inhibition [2]","activity change, negative = inhibition [3] [%]","activity change, negative = inhibition [4]","activity change, negative = inhibition [5]"
Cc1cccc(C2c3cccn3-c3ccccc3CN2C(=O)Nc2ccc3c(c2)OCCO3)c1 (stereo not given),6.52,0%,6.47,3.69%,4.41%
NCCc1ccc(S(=O)(=O)F)cc1,-7.99,4.13%,-1.5,-9.5%,-31.6%
O=C(Nc1ccccc1F)N1Cc2ccccc2-n2cccc2C1c1cccs1 (stereo not given),5.38,1.39%,-4.23,-10.6%,-3.03%
CC1Oc2cc3c(-c4c(O)cc(O)c5c(O)c6c(cc45)OC(C)C(C)C6=O)c(O)cc(O)c3c(O)c2C(=O)C1C (stereo not given),,-70.9%,,-61.1%,-75.3%
Cc1cccc(NC(=O)N2Cc3ccccc3-n3cccc3C2C)c1C (stereo not given),3.94,0.626%,5.11,-1.09%,11.2%
COC(=O)[C@@]12C(=O)C(C)C(=O)[C@]1(C)C(C)=C[C@H]1[C@]3(C=O)CC[C@H](OC(C)=O)C(C)(C)[C@H]3CC[C@@]12C (stereo not given in full),0,-11.6%,0.293,-23.2%,-4.14%
Cc1cccc(C2c3cccn3-c3ccccc3CN2C(=O)Nc2ccc(C)c(Cl)c2)c1 (stereo not given),4.99,2.97%,-1.98,1.45%,1.46%
Fc1cc(F)c2c(c1)[C@H]1C=CC[C@H]1C(c1cccnc1)N2 (stereo not given in full),-21.3,-9.52% and 2.45%,0.951,-33% and -14.5%,-16.8% and 2.32%
OCC1CN(c2ncccn2)CC12CCNCC2 (stereo not given),-2.11,-6.42%,-4.26,-11.4%,-9.63%
C[C@H](N)CN1CCc2ccc(Br)cc21,-3.13,14.8%,6.74,-3.06%,-0.563%
CC[C@@H]1C[C@H]2CC[C@H](O2)[C@H](C)C(=O)O[C@@H](C)C[C@@H]2CC[C@@H](O2)[C@@H](C)C(=O)O[C@H](C)C[C@H]2CC[C@H](O2)[C@H](C)C(=O)O[C@@H](C)C[C@@H]2CC[C@@H](O2)[C@@H](C)C(=O)O1,4.66,11.3%,6.49,-4.87%,5.63%
COc1ccccc1NC(=O)N1Cc2ccccc2-n2cccc2C1c1cccs1 (stereo not given),5.57,0%,3.73,1.18%,4.64%
CCOc1ccccc1NC(=O)N1Cc2ccccc2-n2cccc2C1c1ccccc1C (stereo not given),9.27,4.43%,3.96,2.99%,4.31%
O=C(O)COCC(=O)N1C[C@@H]2C[C@H](C1)c1ccc(-c3cc4ccccc4s3)c(=O)n1C2,-4.69,-10.4%,-3.62,-15.1%,6.72%
C[C@@H]1CCC2[C@@H](C)C(=O)OC3O[C@@]4(C)CCC1[C@]32OO4 (stereo not given in full),-3.75,,1.81,,
COCCCNC(=O)N1Cc2ccccc2-n2cccc2C1c1ccccc1Cl (stereo not given),-0.015,2.61%,-1,-8.17%,-1.53%
